Reference: the supplement of paper PMC3334620
Whole data set: some 33,000 sequences, median “E-score (-0.5 to 0.5)” near -0.013, cut for the highest 2% near 0.3. This is one part of the list.

Target: T1, Msn1 (UniProt P22148)
T1 sequence: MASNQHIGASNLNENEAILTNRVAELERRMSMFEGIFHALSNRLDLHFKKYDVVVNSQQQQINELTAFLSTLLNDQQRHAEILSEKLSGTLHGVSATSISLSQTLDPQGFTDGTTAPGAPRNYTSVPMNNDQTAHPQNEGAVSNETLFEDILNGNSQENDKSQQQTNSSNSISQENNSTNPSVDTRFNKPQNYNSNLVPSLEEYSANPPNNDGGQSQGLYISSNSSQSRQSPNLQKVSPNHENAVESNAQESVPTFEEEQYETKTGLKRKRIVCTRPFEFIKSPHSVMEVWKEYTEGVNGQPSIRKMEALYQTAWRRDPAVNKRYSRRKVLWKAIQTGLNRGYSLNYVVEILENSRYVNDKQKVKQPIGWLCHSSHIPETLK
Assay: PBM E-score (8-mer binding enrichment) (E-score (-0.5 to 0.5)); higher = stronger / more preferred TF binding; most listed sequences are background and not binding sites
Conditions: protein concentration: 200 nM; construct: GST-full length
Outline: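 Using PURExpress in vitro transcription/translation, GST-tagged yeast transcription factors were made in full-length or DNA-binding-domain form. These were applied at about 100-200 nM to double-stranded universal all-10-mer Agilent arrays, and bound protein was detected with fluorescent anti-GST. Scans were normalised with masliner before the Universal PBM Analysis Suite assigned E-scores to ungapped eight-base words pooled with their reverse complements.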

Row | Sequence | PBM E-score
1 | AAGTGGCG | -0.0607
2 | AGTAGTCC | 0.00303
3 | ACCACGAT | -0.00315
4 | GCTCGTGA | -0.29
5 | AATTCTTC | 0.101
6 | CTCTAGTA | 0.0694
7 | ATGTCGAA | 0.0756
8 | CATCCGGA | 0.187
9 | ACCCACCA | -0.231
10 | TACACTCA | 0.0265
11 | GGGGCGGA | -0.213
12 | AATGAATG | 0.168
13 | CCTCGGTC | -0.157
14 | CTTAGAAC | 0.184
15 | CATTAGAG | -0.135
16 | AGACTCAA | -0.0426
17 | CTAAAACA | 0.0605
18 | TGTTTTAA | 0.168
19 | CGAATGGA | 0.0673
20 | ATTCCCGA | 0.0205
21 | ACGTTTAC | 0.0555
22 | AATTAAAA | 0.162
23 | CATACACA | -0.0667
24 | AAGGTACG | -0.069
25 | ACTTTGGG | -0.0621

Row | Sequence | PBM E-score
26 | GTGAATGA | 0.0546
27 | CAGACTGC | -0.058
28 | AACCCCTA | -0.213
29 | GCCAGCGC | -0.193
30 | ACAATTAC | 0.204
31 | TCTAAGAA | 0.266
32 | ACTCGTAG | -0.158
33 | AGACCGCG | -0.0273
34 | AGAGATAG | -0.0658
35 | GCCGGGCA | -0.169
36 | ATACTTGA | -0.054
37 | ACTGGTTG | -0.0344
38 | GAAAATGC | 0.0894
39 | AGTCAGAC | 0.176
40 | ATCAACGG | 0.176
41 | AGCCGATC | -0.0201
42 | CAGATACC | -0.0556
43 | CCTATCAG | -0.252
44 | AGAGCCTG | -0.0449
45 | GCAATGCA | -0.0348
46 | ATTTGTGC | 0.093
47 | CCACCTGG | -0.38
48 | CGTGGTAA | -0.0664
49 | ATGTTTCG | 0.0846
50 | ACCGCTAT | 0.0288

Row | Sequence | PBM E-score
51 | TAAGGAGA | -0.255
52 | CCCTTGAA | -0.0891
53 | ATCCACCG | 0.0604
54 | GAGACTAC | -0.0763
55 | AAGACTGA | -0.00313
56 | CCGAAAAC | 0.0665
57 | GTACTAAC | 0.0331
58 | CATCAAGG | -0.254
59 | CCAATTAC | -0.00963
60 | GACCACAA | -0.152
61 | GTCGCTGA | 0.129
62 | AATGGTAG | 0.0825
63 | ACATACAG | 0.167
64 | CTCCGTGA | 0.115
65 | ACCTACAG | -0.0496
66 | AACCCCCC | -0.291
67 | ATGCCCCC | -0.224
68 | CGCAGAGC | -0.129
69 | CTAACTGC | -0.0906
70 | GCATCTTA | 0.0374
71 | CATCGTGC | 0.145
72 | AACCGTCG | 0.0394
73 | CCTATGCG | -0.0132
74 | ATCCCGCA | 0.00249
75 | GTCCTTGA | 0.285

Row | Sequence | PBM E-score
76 | AAAAGCGA | 0.0705
77 | GCTTAGGA | -0.117
78 | ATTATAAG | 0.103
79 | CCATTACA | 0.121
80 | CGGAGCCA | -0.214
81 | GAGGGCAC | -0.321
82 | ACCCTTTA | 0.0137
83 | CAATATCG | 0.016
84 | ACGGCAAA | 0.0443
85 | AGCCCCCC | -0.432
86 | GGGCACAC | -0.166
87 | CACAGGCC | 0.00035
88 | CATTTCGA | 0.15
89 | GAGCGGGA | -0.17
90 | TCATTGAA | 0.0398
91 | CTGGAATC | -0.151
92 | AAATTATA | 0.165
93 | CATCTGGC | -0.0625
94 | AACTATGC | 0.0573
95 | CTTTAACC | 0.0113
96 | AAGCCAAA | -0.0623
97 | ACGTTGAG | -0.0298
98 | CCGGAAGG | 0.033
99 | TAGAATAA | 0.115
100 | CATAGCCC | -0.188

Row | Sequence | PBM E-score
101 | ATAAACTG | 0.108
102 | CTTGGTGA | -0.182
103 | CCTGAGTA | -0.0416
104 | AATTAAGC | 0.00396
105 | CTGGCCGC | 0.0571
106 | CTCAGTAA | 0.0439
107 | GAATAAGA | 0.0359
108 | AGCGATGG | -0.0716
109 | AAATGCTG | 0.155
110 | GCACGCGA | -0.00286
111 | CTAAGTCC | -0.0602
112 | CTGAGTTC | 0.0107
113 | GGGGTGAC | -0.166
114 | CTCACTCC | -0.069
115 | TACCCAAA | 0.196
116 | CCGCAAAC | 0.0701
117 | ACTTGTAT | 0.145
118 | GGGCAACC | -0.125
119 | ACACTATG | 0.0864
120 | AGCTCAAG | 0.0255
121 | CTTGAAAG | -0.0147
122 | CTATAGGC | -0.144
123 | GCGCGAGC | -0.251
124 | CCACCGAG | -0.135
125 | CCCCATAG | -0.15

Row | Sequence | PBM E-score
126 | GTGGACAC | 0.356
127 | CATATTTC | 0.0185
128 | CCGATTGC | 0.104
129 | CGTTCCCA | -0.158
130 | CAACAATG | 0.153
131 | ATAGTCCA | 0.13
132 | AGCATCAG | -0.147
133 | ATCAATCC | -0.0213
134 | CCGTCGAA | 0.0145
135 | AAATATTA | 0.198
136 | ACGAGGTA | -0.0556
137 | CTGCTTAC | -0.0712
138 | ACAACAGC | 0.231
139 | AGCCCACG | -0.0627
140 | AGTTCTGA | 0.119
141 | AGGTAATC | -0.139
142 | ATTCCGGG | 0.14
143 | CGCGTATC | 0.123
144 | ATAAGACA | 0.264
145 | CAACTTCA | -0.0655
146 | TGGGAACA | 0.0591
147 | AAAGGGCA | -0.0617
148 | GTCCTATA | 0.303
149 | CATGAAGA | -0.0152
150 | AAGGGAGT | -0.192

Row | Sequence | PBM E-score
151 | CGACGATA | 0.0245
152 | AAATGCAA | 0.00682
153 | AACGTGGA | -0.00782
154 | AGACGAAG | -0.0272
155 | AAAGTCCT | 0.427
156 | ACGCAAAG | -0.0925
157 | GTGTCTAA | 0.192
158 | ACGACTTG | 0.0425
159 | CAAATCTA | 0.219
160 | CCCTCGGC | -0.0865
161 | GAGTCTCC | -0.0706
162 | GCAAACAC | -0.135
163 | CTGTTCTC | -0.0397
164 | AAGTTTTC | 0.0629
165 | CGACAAAG | 0.294
166 | ATTCCTGC | 0.0301
167 | CGCGAACC | 0.119
168 | GCACTACC | -0.127
169 | AAAAGAAA | 0.171
170 | GCAATCCC | -0.162
171 | AGGTAACA | 0.113
172 | GAATGAAC | -0.0115
